Experimental data from PubChem BioAssay AID1030 (National Center for Advancing Translational Sciences (NCATS), 2008).
Screen size: about 220,000 compounds; about 16,000 (7.3%) were called active. This list was built around the results that the source calls inconclusive (neither active nor inactive); the mix of calls is not that of the screen. Calls come from the whole dose curve; as a rule, active = well fitted inhibition curve with a large enough effect (not every such curve was filed as active); inconclusive = small, poorly fitted or top-dose-only effect, or another doubt; inactive = no such curve, though single readings can be large or run the other way. Potencies of inconclusive entries are left out as doubtful fits.
Potency is the fitted concentration of half-maximal effect; tags give direction and shape of the fitted curve.

These molecules were tested against Aldehyde dehydrogenase 1A1 (Homo sapiens) (UniProt P00352) (assay: qHTS Assay for Inhibitors of Aldehyde Dehydrogenase 1 (ALDH1A1)). Settings: Purified ALDH1A1, NADH fluorescence, propionaldehyde substrate; series mostly up to 75.3 µM.
Sequence of UniProt P00352 (P00352 whole entry, looked up): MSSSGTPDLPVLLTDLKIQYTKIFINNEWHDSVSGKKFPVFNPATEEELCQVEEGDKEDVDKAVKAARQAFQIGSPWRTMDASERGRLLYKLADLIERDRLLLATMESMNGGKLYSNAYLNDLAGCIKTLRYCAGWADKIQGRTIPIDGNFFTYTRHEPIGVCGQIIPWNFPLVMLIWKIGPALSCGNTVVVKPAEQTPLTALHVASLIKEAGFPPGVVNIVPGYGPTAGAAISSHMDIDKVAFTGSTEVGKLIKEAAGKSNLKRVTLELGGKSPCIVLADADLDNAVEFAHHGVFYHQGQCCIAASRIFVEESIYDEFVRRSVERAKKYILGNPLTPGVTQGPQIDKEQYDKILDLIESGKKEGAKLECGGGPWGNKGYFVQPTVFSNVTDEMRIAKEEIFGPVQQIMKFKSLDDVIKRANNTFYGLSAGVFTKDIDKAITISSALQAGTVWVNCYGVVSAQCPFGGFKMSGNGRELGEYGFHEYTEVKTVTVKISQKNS
With `S=C(Nc1ccc2c(c1)OCO2)NC1CCN(Cc2ccccc2)CC1` the Potency was active: 12.6 µM.
In the case of `CCOC(=O)c1nn(-c2cccc(Cl)c2)c2nc(CC(C)C)c(C#N)c(=O)n12`, the Potency was inconclusive [inhibitor, partial curve].
In the case of `Cc1sc2ncnc(Sc3nnc4sc5ccccc5n34)c2c1C`, the Potency was inconclusive [inhibitor, partial curve].
With `COCCCNC(=O)CC(NS(=O)(=O)c1ccc(OC)cc1)c1ccc(OC)cc1` (centres undefined) the Potency was inconclusive [inhibitor, partial curve].
In the case of `COC(=O)c1cc(C(=O)OCC(=O)Nc2ccccc2OC(F)F)cc([N+](=O)[O-])c1`, the Potency was “inactive”.
For `COc1cc2c(cc1O)CCC1C2CC[C@]2(C)[C@@H](O)CC[C@@H]12` (some centres undefined), the Potency was “inactive”.
In the case of `COc1ccc(C(c2nnnn2C2CCCC2)N2CCN(c3ccccc3)CC2)cc1` (centres undefined), the Potency was inconclusive [inhibitor, partial curve, poor fit].
In the case of `CCC(C)NC(=O)/C=C1\Sc2ccccc2NC1=O` (centres undefined), the Potency was inconclusive [inhibitor, single point].
For `Cc1ccc(NS(=O)(=O)c2ccc(C3CCCCC3)cc2)cc1`, the Potency was inconclusive [inhibitor, single point].
`COc1ccc(S(=O)(=O)N2CCN(C(=O)c3cc(C)oc3C)CC2)cc1` was tested, and the Potency was “inactive”.
With `O=C(NC(=S)Nc1ccc(N2CCCC2)cc1)c1ccccc1[N+](=O)[O-]` the Potency was inconclusive [inhibitor, partial curve].
In the case of `CCOC(=O)C(=O)c1c(-c2ccc(C)cc2)nc2ccccn12`, the Potency was inconclusive [inhibitor, single point].
With `O=C(c1ccccc1)c1ccc(Oc2ncccn2)cc1` the Potency was “inactive”.
In the case of `C/C(CC(=O)Nc1ccccc1[N+](=O)[O-])=N\NC(=O)COc1ccccc1C`, the Potency was inconclusive [inhibitor, single point].
`COc1ccccc1-c1cc(C(=O)NC(C)C)no1` was tested, and the Potency was inconclusive [inhibitor, single point].
`Cc1ccccc1C(=O)N1CCN(c2ccc([N+](=O)[O-])c(NCc3ccco3)c2)CC1` was tested, and the Potency was inconclusive [inhibitor, partial curve].
For `O=C(NC(Cc1ccccc1)C(=O)O)/C(=C/c1ccc(F)cc1)NC(=O)c1ccccc1` (centres undefined), the Potency was “inactive”.
For `Cc1ccc(/C=C2/NC(=O)N(Cc3ccccc3)C2=O)o1`, the Potency was active: 3.55 µM.
With `O=C(NNc1ccc(C(F)(F)F)cc1[N+](=O)[O-])c1ccc(NS(=O)(=O)c2ccc(F)cc2)cc1` the Potency was inconclusive [inhibitor, single point].
